# Laboratory results taken from the supplement of paper PMC10037445.
# In all, about 2,900 compounds were measured (“NF-kB SEAP reporter activity, fold change vs agonist alone”: median about 0.99, highest 2% from about 2.6 on). This is one part of the list.
# Key:
# RAW-Dual [1] = test: NF-kB SEAP reporter activity, fold change vs agonist alone; higher = enhanced NF-kB activity; settings: library stock concentration (final ~1000-fold dilution): 10 mM
# Outline: (§1)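 Supernatant from RAW-Dual macrophages was read after 20 hours for IRF by QuantiLuc luminescence and for NF-κB by QuantiBlue absorbance at 620 nm. The cells (50,000 cells/well in DMEM, 384-well plates, 37 °C, 5% CO2) had received 50 nL of library stock by pin tool and, 1 h later, a PRR agonist. Reporter activity is expressed relative to agonist-alone wells as fold change, and wells were flagged cytotoxic if IncuCyte confluency was under 70% of agonist controls in both mask sets.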
# RAW-Dual [2] = test: NF-kB SEAP reporter activity, fold change vs agonist alone; cytotoxicity flag (confluency mask): cytotoxic (confluency <70% of control); higher = enhanced NF-kB activity
# Outline: as §1
# RAW-Dual [3] = test: NF-kB SEAP reporter activity, fold change vs agonist alone; cytotoxicity flag (confluency mask): not cytotoxic; higher = enhanced NF-kB activity
# Outline: as §1
# [4] = cytotoxicity flag (confluency mask): cytotoxic (confluency <70% of control), agonist: Imiquimod (TLR7) […]
# [5] = cytotoxicity flag (confluency mask): cytotoxic (confluency <70% of control), agonist: MPLA (TLR4) […]
# [6] = agonist: ODN 1826 (TLR9) 0.5 ug/mL
# [7] = agonist: Pam2CSK4 (TLR2/6) 0.1 ug/mL
# [8] = agonist: Pam3CSK4 (TLR2/1) 0.1 ug/mL
# [9] = cytotoxicity flag (confluency mask): not cytotoxic, agonist: Imiquimod (TLR7) […]
# [10] = cytotoxicity flag (confluency mask): not cytotoxic, agonist: MPLA (TLR4) […]
smiles,measurement,setting,value
N#CSc1cc(SC#N)c(N)nc1N,NF-kB SEAP reporter activity,RAW-Dual [1]; [4],1.33
same,NF-kB SEAP reporter activity,RAW-Dual [1]; [5],0.241
N#CSc1cc(SC#N)c(N)nc1N (library stock concentration (final ~1000-fold dilution): 10 mM),NF-kB SEAP reporter activity,RAW-Dual [2]; agonist: LPS (TLR4) 0.1 ug/mL,0.288
same,NF-kB SEAP reporter activity,RAW-Dual [2]; [6],0.401
same,NF-kB SEAP reporter activity,RAW-Dual [2]; [7],0.504
same,NF-kB SEAP reporter activity,RAW-Dual [2]; [8],0.407
Clc1ccc(Cn2c(CN3CCCC3)nc3ccccc32)cc1,NF-kB SEAP reporter activity,RAW-Dual [1]; [9],0.973
same,NF-kB SEAP reporter activity,RAW-Dual [1]; [10],1.05
Clc1ccc(Cn2c(CN3CCCC3)nc3ccccc32)cc1 (library stock concentration (final ~1000-fold dilution): 10 mM),NF-kB SEAP reporter activity,RAW-Dual [3]; agonist: LPS (TLR4) 0.1 ug/mL,0.98
same,NF-kB SEAP reporter activity,RAW-Dual [3]; [6],0.721
same,NF-kB SEAP reporter activity,RAW-Dual [3]; [7],1.08
same,NF-kB SEAP reporter activity,RAW-Dual [3]; [8],1.11
Oc1ccc2ccccc2c1SSc1c(O)ccc2ccccc12 (library stock concentration (final ~1000-fold dilution): 10 mM),NF-kB SEAP reporter activity,RAW-Dual [3]; agonist: LPS (TLR4) 0.1 ug/mL,1.04
same,NF-kB SEAP reporter activity,RAW-Dual [3]; [6],0.906
same,NF-kB SEAP reporter activity,RAW-Dual [3]; [7],0.912
same,NF-kB SEAP reporter activity,RAW-Dual [3]; [8],1.01
Oc1ccc2ccccc2c1SSc1c(O)ccc2ccccc12,NF-kB SEAP reporter activity,RAW-Dual [1]; [9],0.888
same,NF-kB SEAP reporter activity,RAW-Dual [1]; [10],0.954
COc1cc2nc(N(C)CCCNC(=O)C3CCCO3)nc(N)c2cc1OC (stereo not drawn) (library stock concentration (final ~1000-fold dilution): 10 mM),NF-kB SEAP reporter activity,RAW-Dual [3]; agonist: LPS (TLR4) 0.1 ug/mL,1.05
same,NF-kB SEAP reporter activity,RAW-Dual [3]; [6],0.857
same,NF-kB SEAP reporter activity,RAW-Dual [3]; [7],1.03
same,NF-kB SEAP reporter activity,RAW-Dual [3]; [8],1.07
COc1cc2nc(N(C)CCCNC(=O)C3CCCO3)nc(N)c2cc1OC (stereo not drawn),NF-kB SEAP reporter activity,RAW-Dual [1]; [9],0.996
same,NF-kB SEAP reporter activity,RAW-Dual [1]; [10],1.09
CCOC(=O)COc1ccc(/C=C2\SC(=S)NC2=O)cc1OC (library stock concentration (final ~1000-fold dilution): 10 mM),NF-kB SEAP reporter activity,RAW-Dual [3]; agonist: LPS (TLR4) 0.1 ug/mL,1.04
same,NF-kB SEAP reporter activity,RAW-Dual [3]; [6],0.889
same,NF-kB SEAP reporter activity,RAW-Dual [3]; [7],0.889
same,NF-kB SEAP reporter activity,RAW-Dual [3]; [8],1.1
CCOC(=O)COc1ccc(/C=C2\SC(=S)NC2=O)cc1OC,NF-kB SEAP reporter activity,RAW-Dual [1]; [9],0.985
same,NF-kB SEAP reporter activity,RAW-Dual [1]; [10],1.1
CC(CCc1ccccc1)NCC(O)c1ccc(O)c(C(N)=O)c1.Cl (stereo not drawn),NF-kB SEAP reporter activity,RAW-Dual [1]; [9],1.65
same,NF-kB SEAP reporter activity,RAW-Dual [1]; [10],1.21
CC(CCc1ccccc1)NCC(O)c1ccc(O)c(C(N)=O)c1.Cl (stereo not drawn) (library stock concentration (final ~1000-fold dilution): 10 mM),NF-kB SEAP reporter activity,RAW-Dual [3]; agonist: LPS (TLR4) 0.1 ug/mL,1.49
same,NF-kB SEAP reporter activity,RAW-Dual [3]; [6],1.21
same,NF-kB SEAP reporter activity,RAW-Dual [3]; [7],1.37
same,NF-kB SEAP reporter activity,RAW-Dual [3]; [8],1.2
CCCCc1nc2cc(/C=C/C(=O)NO)ccc2n1CCN(CC)CC,NF-kB SEAP reporter activity,RAW-Dual [1]; [4],2.43
same,NF-kB SEAP reporter activity,RAW-Dual [1]; [5],2.67
CCCCc1nc2cc(/C=C/C(=O)NO)ccc2n1CCN(CC)CC (library stock concentration (final ~1000-fold dilution): 10 mM),NF-kB SEAP reporter activity,RAW-Dual [2]; agonist: LPS (TLR4) 0.1 ug/mL,4.93
same,NF-kB SEAP reporter activity,RAW-Dual [2]; [6],1.54
same,NF-kB SEAP reporter activity,RAW-Dual [2]; [7],0.93
same,NF-kB SEAP reporter activity,RAW-Dual [2]; [8],1.99
Nc1ccc(/C=C/C(=O)NCc2cc3cc(-c4ccc(C(=O)N5CCC(F)(F)CC5)cc4)cc(-c4ccc(F)cc4)c3o2)cn1 (library stock concentration (final ~1000-fold dilution): 10 mM),NF-kB SEAP reporter activity,RAW-Dual [3]; agonist: LPS (TLR4) 0.1 ug/mL,0.54
same,NF-kB SEAP reporter activity,RAW-Dual [3]; [6],0.91
same,NF-kB SEAP reporter activity,RAW-Dual [3]; [7],0.361
same,NF-kB SEAP reporter activity,RAW-Dual [3]; [8],0.425
Nc1ccc(/C=C/C(=O)NCc2cc3cc(-c4ccc(C(=O)N5CCC(F)(F)CC5)cc4)cc(-c4ccc(F)cc4)c3o2)cn1,NF-kB SEAP reporter activity,RAW-Dual [1]; [9],0.939
same,NF-kB SEAP reporter activity,RAW-Dual [1]; [10],0.83
